Source: the supplement of paper PMC8728848
The other results are listed elsewhere or left out.

Columns and labels:
Assay in all cases: glycan array binding signal (z-score within array); higher = stronger binding
Conditions in all cases: glycan notation: IUPAC condensed, linker removed
[1] = molecular target: Neu5Ac(a2-6)Gal(b1-3)GlcNAc(b1-3)[Fuc(a1-3)[Gal(b1-4)]GlcNAc(b1-6)]Gal(b1-4)Glc
Procedure, shortened: (§1)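 The binding signal is a Z-score computed within each array and averaged over linkers. Arrays of the same protein sequence at different concentrations or buffers were also averaged together. Data originate from 3228 arrays in the Consortium for Functional Glycomics database, kept only where the protein sequence was available.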

[2] = molecular target: Neu5Ac(a2-6)Gal(b1-3)GlcNAc(b1-3)[Gal(b1-4)GlcNAc(b1-6)]Gal(b1-4)Glc
Procedure, shortened: as §1

[3] = molecular target: Neu5Ac(a2-6)Gal(b1-3)[Neu5Ac(a2-6)]GalNAc(b1-4)Gal(b1-4)Glc
Procedure, shortened: as §1

Neu5Ac(a2-6)Gal(b1-4)Glc = molecular target: Neu5Ac(a2-6)Gal(b1-4)Glc
Procedure, shortened: as §1

[4] = molecular target: Neu5Ac(a2-6)Gal(b1-4)GlcNAc
Procedure, shortened: as §1

[5] = molecular target: Neu5Ac(a2-6)Gal(b1-4)GlcNAc(b1-2)Man(a1-3)[Neu5Ac(a2-6)Gal(b1-4)GlcNAc(b1-2)Man(a1-6)]Man(b1-4)GlcNAc(b1-4)GlcNAc
Procedure, shortened: as §1

[6] = molecular target: Neu5Ac(a2-6)Gal(b1-4)GlcNAc(b1-2)Man(a1-3)[Neu5Gc(a2-6)Gal(b1-4)GlcNAc(b1-2)Man(a1-6)]Man(b1-4)GlcNAc(b1-4)GlcNAc
Procedure, shortened: as §1

[7] = molecular target: Neu5Ac(a2-6)Gal(b1-4)GlcNAc(b1-2)[Neu5Ac(a2-3)Gal(b1-4)GlcNAc(b1-4)]Man(a1-3)[Neu5Ac(a2-3)Gal(b1-4)GlcNAc(b1-2)Man(a1-6)]Man(b1-4)GlcNAc(b1-4)GlcNAc
Procedure, shortened: as §1

[8] = molecular target: Neu5Ac(a2-6)Gal(b1-4)GlcNAc(b1-3)Gal(b1-4)Glc
Procedure, shortened: as §1

[9] = molecular target: Neu5Ac(a2-6)Gal(b1-4)GlcNAc(b1-3)Gal(b1-4)[Fuc(a1-3)]Glc
Procedure, shortened: as §1

[10] = molecular target: Neu5Ac(a2-6)Gal(b1-4)GlcNAc(b1-3)[Neu5Ac(a2-6)Gal(b1-4)GlcNAc(b1-6)]Gal(b1-4)Glc
Procedure, shortened: as §1

[11] = molecular target: Neu5Ac(a2-6)Gal(b1-4)GlcNAc(b1-6)[Gal(b1-3)GlcNAc(b1-3)]Gal(b1-4)Glc
Procedure, shortened: as §1

[12] = molecular target: Neu5Ac(a2-6)Gal(b1-4)[Fuc(a1-3)]GlcNAc(b1-3)Gal(b1-4)Glc
Procedure, shortened: as §1

[13] = molecular target: Neu5Ac(a2-6)Gal(b1-6)GalNAc(b1-4)Gal(b1-4)Glc
Procedure, shortened: as §1

Neu5Ac(a2-6)Gal6S = molecular target: Neu5Ac(a2-6)Gal6S
Procedure, shortened: as §1

[14] = molecular target: Neu5Ac(a2-6)Gal6S(b1-4)Glc
Procedure, shortened: as §1

[15] = molecular target: Neu5Ac(a2-6)Gal6S(b1-4)Glc4S
Procedure, shortened: as §1

Neu5Ac(a2-6)GalNAc = molecular target: Neu5Ac(a2-6)GalNAc
Procedure, shortened: as §1

Neu5Ac(a2-6)Glc = molecular target: Neu5Ac(a2-6)Glc
Procedure, shortened: as §1

Neu5Ac(a2-6)Glc6S = molecular target: Neu5Ac(a2-6)Glc6S
Procedure, shortened: as §1

Neu5Ac(a2-6)GlcNAc = molecular target: Neu5Ac(a2-6)GlcNAc
Procedure, shortened: as §1

Neu5Ac(a2-6)GlcNAc6S = molecular target: Neu5Ac(a2-6)GlcNAc6S
Procedure, shortened: as §1

Neu5Ac(a2-8)Neu5Ac = molecular target: Neu5Ac(a2-8)Neu5Ac
Procedure, shortened: as §1

[16] = molecular target: Neu5Ac(a2-8)Neu5Ac(a2-3)Gal
Procedure, shortened: as §1

[17] = molecular target: Neu5Ac(a2-8)Neu5Ac(a2-3)Gal(b1-3)GalNAc(b1-4)[Neu5Ac(a2-3)]Gal(b1-4)Glc
Procedure, shortened: as §1

[18] = molecular target: Neu5Ac(a2-8)Neu5Ac(a2-3)Gal(b1-3)GalNAc(b1-4)[Neu5Ac(a2-8)Neu5Ac(a2-3)]Gal(b1-4)Glc
Procedure, shortened: as §1

[19] = molecular target: Neu5Ac(a2-8)Neu5Ac(a2-3)Gal(b1-4)Glc
Procedure, shortened: as §1

[20] = molecular target: Neu5Ac(a2-8)Neu5Ac(a2-3)[Gal(b1-3)GalNAc(b1-4)]Gal(b1-4)Glc
Procedure, shortened: as §1

[21] = molecular target: Neu5Ac(a2-8)Neu5Ac(a2-3)[GalNAc(b1-4)]Gal(b1-4)Glc
Procedure, shortened: as §1

[22] = molecular target: Neu5Ac(a2-8)Neu5Ac(a2-6)Gal
Procedure, shortened: as §1

[23] = molecular target: Neu5Ac(a2-8)Neu5Ac(a2-6)Glc
Procedure, shortened: as §1

[24] = molecular target: Neu5Ac(a2-8)Neu5Ac(a2-8)Neu5Ac
Procedure, shortened: as §1

[25] = molecular target: Neu5Ac(a2-8)Neu5Ac(a2-8)Neu5Ac(a2-3)Gal(b1-4)Glc
Procedure, shortened: as §1

[26] = molecular target: Neu5Ac(a2-8)Neu5Ac(a2-8)Neu5Ac(a2-6)Gal
Procedure, shortened: as §1

[27] = molecular target: Neu5Ac(a2-8)Neu5Ac(a2-8)Neu5Ac(a2-8)Neu5Ac
Procedure, shortened: as §1

[28] = molecular target: Neu5Ac(a2-8)Neu5Ac(a2-8)Neu5Ac(a2-8)Neu5Ac(a2-8)Neu5Ac
Procedure, shortened: as §1

[29] = molecular target: Neu5Ac(a2-8)Neu5Ac(a2-8)Neu5Ac(a2-8)Neu5Ac(a2-8)Neu5Ac(a2-8)Neu5Ac
Procedure, shortened: as §1

[30] = molecular target: Neu5Ac(a2-8)Neu5Ac(a2-8)Neu5Ac(a2-8)Neu5Ac(a2-8)Neu5Ac(a2-8)Neu5Ac(a2-8)Neu5Ac
Procedure, shortened: as §1

[31] = molecular target: Neu5Ac(a2-8)Neu5Ac(a2-8)Neu5Ac(a2-8)Neu5Ac(a2-8)Neu5Ac(a2-8)Neu5Ac(a2-8)Neu5Ac(a2-8)Neu5Ac
Procedure, shortened: as §1

[32] = molecular target: Neu5Ac(a2-8)Neu5Ac(a2-8)Neu5Ac(a2-8)Neu5Ac(a2-8)Neu5Ac(a2-8)Neu5Ac(a2-8)Neu5Ac(a2-8)Neu5Ac(a2-8)Neu5Ac
Procedure, shortened: as §1

[33] = molecular target: Neu5Ac(a2-8)Neu5Ac(a2-8)Neu5Ac(a2-8)Neu5Ac(a2-8)Neu5Ac(a2-8)Neu5Ac(a2-8)Neu5Ac(a2-8)Neu5Ac(a2-8)Neu5Ac(a2-8)Neu5Ac
Procedure, shortened: as §1

[34] = molecular target: Neu5Ac(a2-9)Neu5Ac(a2-3)Gal(b1-4)Glc
Procedure, shortened: as §1

Neu5Ac(b2-3)Gal(b1-4)Glc = molecular target: Neu5Ac(b2-3)Gal(b1-4)Glc
Procedure, shortened: as §1

Neu5Ac(b2-6)Gal(b1-4)Glc = molecular target: Neu5Ac(b2-6)Gal(b1-4)Glc
Procedure, shortened: as §1

[35] = molecular target: Neu5Ac9Ac(a2-3)Gal(b1-3)[Fuc(a1-4)]GlcNAc
Procedure, shortened: as §1

[36] = molecular target: Neu5Ac9Ac(a2-3)Gal(b1-4)[Fuc(a1-3)]GlcNAc
Procedure, shortened: as §1

[37] = molecular target: Neu5Ac9Ac(a2-3)Gal(b1-4)[Fuc(a1-3)]GlcNAc(b1-3)Gal
Procedure, shortened: as §1

[38] = molecular target: Neu5Ac9Ac(a2-6)Gal(b1-4)GlcNAc
Procedure, shortened: as §1

[39] = molecular target: Neu5Ac9Me(a2-3)Gal(b1-4)Glc
Procedure, shortened: as §1

[40] = molecular target: Neu5Gc(a2-3)Gal(b1-3)GlcNAc(b1-3)Gal(b1-4)Glc
Procedure, shortened: as §1

Neu5Gc(a2-3)Gal(b1-4)Glc = molecular target: Neu5Gc(a2-3)Gal(b1-4)Glc
Procedure, shortened: as §1

[41] = molecular target: Neu5Gc(a2-3)Gal(b1-4)[Fuc(a1-3)]GlcNAc(b1-3)Gal
Procedure, shortened: as §1

[42] = molecular target: Neu5Gc(a2-6)Gal(b1-3)GlcNAc(b1-3)Gal(b1-4)Glc
Procedure, shortened: as §1

[43] = molecular target: Neu5Gc(a2-6)Gal(b1-4)GlcNAc(b1-2)Man(a1-3)[Neu5Gc(a2-6)Gal(b1-4)GlcNAc(b1-2)Man(a1-6)]Man(b1-4)GlcNAc(b1-4)GlcNAc
Procedure, shortened: as §1

Neu5Gc(a2-6)GalNAc = molecular target: Neu5Gc(a2-6)GalNAc
Procedure, shortened: as §1

Rha(a1-6)Glc = molecular target: Rha(a1-6)Glc
Procedure, shortened: as §1

[44] = molecular target: Xyl(a1-6)Glc(b1-4)[Xyl(a1-6)]Glc(b1-4)[Xyl(a1-6)]Glc(b1-4)Glc
Procedure, shortened: as §1

[45] = molecular target: Xyl(b1-2)[Man(a1-3)][Man(a1-6)]Man(b1-4)GlcNAc(b1-4)GlcNAc
Procedure, shortened: as §1

[46] = molecular target: Xyl(b1-2)[Man(a1-3)][Man(a1-6)]Man(b1-4)GlcNAc(b1-4)[Fuc(a1-3)]GlcNAc
Procedure, shortened: as §1

[47] = molecular target: Xyl(b1-4)Xyl(b1-4)Xyl(b1-4)Xyl(b1-4)Xyl
Procedure, shortened: as §1

[48] = molecular target: Xyl(b1-4)Xyl(b1-4)Xyl(b1-4)Xyl(b1-4)Xyl(b1-4)Xyl
Procedure, shortened: as §1

Measured: glycan array binding signal (z-score)

B1: HysACBM (Streptococcus pneumoniae), Q54873 (protein)
chain: KNLVENGDFGQTEDGSSPWTGSKAQGWSAWVDQKNSADASTRVIEAKDGAITISSHEKLRAALHRMVPIEAKKKYKLRFKIKTDNKIGIAKVRIIEESGKDKRLWNSATTSGTKDWQTIEADYSPTLDVDKIKLELFYETGTGTVSFKDIELVEVADQLS
-0.087: Neu5Ac(b2-6)Gal(b1-4)Glc
0.01: [44]
0.22: [23]
-0.048: [2]
-0.091: all other assays above
